From ChEMBL document CHEMBL3885881, “DrugMatrix”
Not every entry of the source has a single result; some have several. The other results are left out here. There may be further records. The values listed for one entry are repeated measurements (runs, samples, wells, individuals or studies). What stands in brackets tells the records apart. A, B and so on number the origins entry by entry.

How the values were obtained:
Rattus norvegicus [1] = species: Rattus norvegicus; test: DrugMatrix - Regimen: Daily Repeat; format: toxicity, organism-based, Sprague-Dawley; design: regimen Daily Repeat, gender Male, age 6-8 weeks; settings: in vivo, 0 mg/kg, dose level Control
Rattus norvegicus [2] = species: Rattus norvegicus; format: toxicity, organism-based, Sprague-Dawley; settings: in vivo, sc, 0 mg/kg, 24 h, vehicle control, route mini-PUMP - SUBCUTANEOUS, dose level Control, time 1 day, vehicle 100 % SALINE
[3] = po, 72 h, tissue Blood, route oral GAVAGE, time 3 day, vehicle .5 % CMC
[4] = sc, 72 h, tissue Blood, route mini-PUMP - SUBCUTANEOUS, time 3 day, vehicle 100 % SALINE
[5] = sc, 120 h, tissue Blood, route mini-PUMP - SUBCUTANEOUS, time 5 day, vehicle 100 % SALINE

Structure (SMILES) | ABSOLUTE EOSINOPHIL (Rattus norvegicus [1]; [3]) | NUCLEATED RED BLOOD CELLS (Rattus norvegicus [1]; [3]) | LACTATE DEHYDROGENASE (Rattus norvegicus [1]; po, 72 h, tissue Plasma, route oral GAVAGE, time 3 day, vehicle .5 % CMC) | ABSOLUTE MONOCYTE (Rattus norvegicus [1]; po, 120 h, tissue Blood, route oral GAVAGE, time 5 day, vehicle .5 % CMC) | ABSOLUTE BASOPHIL (Rattus norvegicus [2]; tissue Blood) | ABSOLUTE EOSINOPHIL (Rattus norvegicus [2]; tissue Blood) | ABSOLUTE LYMPHOCYTE (Rattus norvegicus [2]; tissue Blood) | ABSOLUTE MONOCYTE (Rattus norvegicus [2]; tissue Blood) | LIPASE (Rattus norvegicus [2]; tissue Plasma) | ABSOLUTE BASOPHIL (Rattus norvegicus [1]; [4]) | ABSOLUTE EOSINOPHIL (Rattus norvegicus [1]; [4]) | ABSOLUTE LYMPHOCYTE (Rattus norvegicus [1]; [4]) | ABSOLUTE MONOCYTE (Rattus norvegicus [1]; [4]) | LIPASE (Rattus norvegicus [1]; sc, 72 h, tissue Plasma, route mini-PUMP - SUBCUTANEOUS, time 3 day, vehicle 100 % SALINE) | ABSOLUTE BASOPHIL (Rattus norvegicus [1]; [5]) | ABSOLUTE EOSINOPHIL (Rattus norvegicus [1]; [5]) | ABSOLUTE LYMPHOCYTE (Rattus norvegicus [1]; [5]) | ABSOLUTE MONOCYTE (Rattus norvegicus [1]; [5]) | LIPASE (Rattus norvegicus [1]; sc, 120 h, tissue Plasma, route mini-PUMP - SUBCUTANEOUS, time 5 day, vehicle 100 % SALINE)
COc1ccc2c3c1O[C@H]1C[C@@H](O)C=C[C@@]31CCN(C)C2 [GALANTAMINE] | 47.67 CELLS/uL [study A] and 0 CELLS/uL [study B] | 0 /100WBC [study A] and 0.33 /100WBC [study B] | 597.5 u/L [study A] and 154.33 u/L [study B] | 102.83 CELLS/uL [study A] and 32 CELLS/uL [study B] | – | – | – | – | – | – | – | – | – | – | – | – | – | – | –
CC(C)NCC(O)c1ccc(O)c(O)c1 (centres undefined) [ISOPROTERENOL] | – | – | – | – | 0.0533 CELLS/uL [study A] and 0 CELLS/uL [study B] | 0.0333 CELLS/uL [study A] and 26.17 CELLS/uL [study B] | 8.34 CELLS/uL [study A] and 10985.83 CELLS/uL [study B] | 0.3 CELLS/uL [study A] and 234.5 CELLS/uL [study B] | 29 u/L [study A] and 8.5 u/L [study B] | 0.0333 CELLS/uL [study A] and 0 CELLS/uL [study B] | 0.0533 CELLS/uL [study A] and 77.17 CELLS/uL [study B] | 9.92 CELLS/uL [study A] and 14293.83 CELLS/uL [study B] | 0.23 CELLS/uL [study A] and 354 CELLS/uL [study B] | 214.67 u/L [study A] and 9 u/L [study B] | 0.0233 CELLS/uL [study A] and 0 CELLS/uL [study B] | 0.0367 CELLS/uL [study A] and 0 CELLS/uL [study B] | 8.92 CELLS/uL [study A] and 14257.33 CELLS/uL [study B] | 0.24 CELLS/uL [study A] and 326 CELLS/uL [study B] | 268.33 u/L [study A] and 9.33 u/L [study B]
